Each structure is given as a SMILES string. The campaign covered roughly 310,000 compounds. About 14,000 (4.5%) showed an effect of 50% or more. Effects have a minus sign here. The list shows a part of the results.
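Further: peak tail current of the secondary pulse compared with the same well before compound.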

The experiment deals with human ether-à-go-go-related gene (hERG) potassium channel (human, UniProt Q12809). Nature of the experiment: primary screen, population patch clamp on CHO cells stably expressing hERG.
Sequence of human ether-à-go-go-related gene (hERG) potassium channel (Q12809 whole entry, looked up): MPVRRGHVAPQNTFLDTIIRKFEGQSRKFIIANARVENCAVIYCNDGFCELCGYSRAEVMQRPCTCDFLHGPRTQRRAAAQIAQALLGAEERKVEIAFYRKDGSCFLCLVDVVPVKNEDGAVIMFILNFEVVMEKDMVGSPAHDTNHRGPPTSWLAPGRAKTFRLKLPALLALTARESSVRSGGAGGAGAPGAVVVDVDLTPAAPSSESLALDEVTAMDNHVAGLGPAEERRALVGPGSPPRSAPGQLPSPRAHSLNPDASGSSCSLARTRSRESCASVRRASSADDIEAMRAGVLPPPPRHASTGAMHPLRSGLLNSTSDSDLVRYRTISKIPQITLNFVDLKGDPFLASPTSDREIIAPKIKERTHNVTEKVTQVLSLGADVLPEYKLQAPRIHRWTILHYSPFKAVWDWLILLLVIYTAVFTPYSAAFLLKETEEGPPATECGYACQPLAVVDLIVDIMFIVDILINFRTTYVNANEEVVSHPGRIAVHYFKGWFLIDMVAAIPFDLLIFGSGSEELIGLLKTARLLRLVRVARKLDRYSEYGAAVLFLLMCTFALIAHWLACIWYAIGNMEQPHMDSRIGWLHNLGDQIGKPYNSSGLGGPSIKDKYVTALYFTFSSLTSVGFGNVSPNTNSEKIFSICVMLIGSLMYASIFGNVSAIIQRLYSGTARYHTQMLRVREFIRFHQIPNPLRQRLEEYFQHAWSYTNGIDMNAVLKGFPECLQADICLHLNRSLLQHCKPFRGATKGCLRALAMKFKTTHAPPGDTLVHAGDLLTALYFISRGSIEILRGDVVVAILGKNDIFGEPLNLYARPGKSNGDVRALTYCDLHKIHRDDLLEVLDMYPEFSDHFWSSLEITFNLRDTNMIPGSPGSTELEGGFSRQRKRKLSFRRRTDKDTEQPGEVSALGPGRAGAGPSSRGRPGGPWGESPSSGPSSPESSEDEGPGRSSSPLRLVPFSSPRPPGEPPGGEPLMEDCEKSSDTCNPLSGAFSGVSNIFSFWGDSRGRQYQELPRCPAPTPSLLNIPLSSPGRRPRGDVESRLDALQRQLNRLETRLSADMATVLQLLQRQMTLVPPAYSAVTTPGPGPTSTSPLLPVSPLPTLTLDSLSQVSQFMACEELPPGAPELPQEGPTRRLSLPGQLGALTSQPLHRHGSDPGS
In the case of `CC1CCN(c2ccc([N+](=O)[O-])cc2C(=O)O)CC1`, the “hERG current change (%, negative = inhibition) at 10uM” value turned out to be 7.28%. As to `Nc1c(S(=O)(=O)c2ccccc2)cnc2c(-c3ccc(F)cc3)cnn12`, the “hERG current change (%, negative = inhibition) at 10uM” value is on record as -11.7%.

Regarding `Cl.O=C(OCCN1CCCCC1)c1ccc(Cl)cc1`, the “hERG current change (%, negative = inhibition) at 10uM” value is -42%. Consider `CCCOc1c(Cl)cc(/C=N/O)cc1OCC`, for which the “hERG current change (%, negative = inhibition) at 10uM” value is reported as -7.95%. Consider `Cc1ccc(C(=O)Nc2cc(=O)n(C)c(=O)n2C)cc1C`, for which the “hERG current change (%, negative = inhibition) at 10uM” value is recorded as 6.47%. With `Nc1c(Cl)ncnc1N/N=C/c1cccc(O)c1`, the “hERG current change (%, negative = inhibition) at 10uM” value is -6.6%. Under `CC1(C)Cc2ccccc2-c2nnc(-c3cccnc3)n21` stands 4.59%; under `O=C(N[C@@H](Cc1ccccc1)C(=O)O)c1ccc(C(F)(F)F)cc1`, 5.56%; under `COc1cccc2c1C(=O)C=C(C)C2=O`, -9.54%. As for `CC(=O)Nc1c(C#N)c(C(C)(C)C)cn1C`, the “hERG current change (%, negative = inhibition) at 10uM” value stood at 7.93%. Under `COc1ccc(S(=O)(=O)N2CCCOC2CNC(=O)C(=O)NCc2cccnc2)cc1` (stereo not drawn) stands 16.8%; under `O=S(=O)(c1ccc(Cl)s1)N1CCc2ccccc2C1`, 7.13%. `CCc1ccc(C(C(=O)NC2CCCC2)N(CCOC)C(=O)CCC(=O)Nc2cc(C)on2)cc1` (stereo not drawn): the “hERG current change (%, negative = inhibition) at 10uM” value is listed as -1.8%. Regarding `CC(C)NC(=O)c1ccc(-c2ccc(Cl)c(C(F)(F)F)c2)o1`, the “hERG current change (%, negative = inhibition) at 10uM” value is 6.71%. Under `Cc1nc(-c2cccc(NC(=O)c3ccco3)c2)cs1` stands -0.548%. The figure for `COc1ccc(CNS(=O)(=O)c2cn(C)c(=O)n(C)c2=O)cc1` is 24.4%; for `Cc1cc(C)c(C)c(S(=O)(=O)N2CCN(C(=O)CNC(=O)c3ccco3)CC2)c1C` it is -13.6%.

Take `CC(Sc1nnnn1-c1ccccc1)C(=O)Nc1ccccc1-c1ccccc1` (stereo not drawn): the “hERG current change (%, negative = inhibition) at 10uM” value is listed as 4.1%. Under `CCOc1cc(N2CCOCC2)c(OCC)cc1NC(=O)c1ccc(C)cc1` stands 5.87%; under `O=C(Nc1ccc(Cl)cc1)N(Cc1nc2ccccc2c(=O)[nH]1)Cc1cccs1`, -12.4%; under `O=C(Nc1nnc(-c2ccccc2Cl)o1)c1ccco1`, 5.5%. The figure for `CC1Cc2ccccc2N1S(=O)(=O)c1cnc(Cl)c(Br)c1` (stereo not drawn) is 3.94%; for `O=C(CSc1nnc(NC(=O)c2ccco2)s1)Nc1ccccc1Br` it is 0.776%; for `Br.Clc1ccc2nc(CN3CCCc4ccccc43)cn2c1` it is -8.72%.

Take `CCOC(=O)c1ccc(N2C(=O)CC(N3CCOCC3)C2=O)cc1` (stereo not drawn): the “hERG current change (%, negative = inhibition) at 10uM” value is reported as -8.08%. Turning to `CC(NC(=O)c1ccccc1Cl)c1nnc(SCC(=O)Nc2ccc(C(=O)O)cc2)n1C` (stereo not drawn), the “hERG current change (%, negative = inhibition) at 10uM” value was determined as 11.6%. As for `O=S(=O)(Nc1ccc(-c2cn3ccccc3n2)cc1)c1ccccc1`, the “hERG current change (%, negative = inhibition) at 10uM” value is -31.4%.

For the compound `COc1ccccc1NC(=S)NC(NC(=O)C(C)C)C(Cl)(Cl)Cl` (stereo not drawn), the “hERG current change (%, negative = inhibition) at 10uM” value turned out to be 6.15%.

With `N#Cc1ccc(OCC(=O)OCCCOC(=O)COc2ccc(C#N)cc2)cc1`, the “hERG current change (%, negative = inhibition) at 10uM” value is -66.8%.

On to `Cc1cccc(C(=O)Nc2ccc(NC(=O)c3ccccc3)cc2)c1`, for which the “hERG current change (%, negative = inhibition) at 10uM” value was -13.1%. The figure for `COc1ccc(S(=O)(=O)N2CCC(C(=O)Nc3ccccc3C)CC2)c2cccnc12` is -10.9%. The figure for `O=C(COc1c(Cl)cccc1Cl)NN1C(=O)CSC1=S` is 18.4%. On to `COc1ccc(CCNCc2sccc2C)cc1OC.Cl`, for which the “hERG current change (%, negative = inhibition) at 10uM” value stood at 6.32%. The figure for `O=S(=O)(c1ccccc1)N1CCC(c2ccccc2)CC1` is 9.81%; for `CCCN(C(=O)Cc1nc(N)n[nH]1)C1(C(=O)Nc2c(C)cccc2C)CCCCC1` it is 5.99%; for `Cc1c(C(=O)c2ccc(Br)cc2)c(=O)n(C)c(=O)n1C` it is 7.09%. The figure for `COc1ccc(/C(C)=N\O)cc1OC` is 0.298%; for `COc1cccc(C(=O)CN(C(=O)c2ccc(Cl)c(Cl)c2)N2C(=O)c3ccccc3C2=O)c1` it is 1.22%; for `Cc1[nH]c2ccccc2c1SCC(=O)NC1CCCCC1` it is 39.9%. On to `CCOc1ncccc1C(=O)Nc1ccc2c(c1)OCO2`, for which the “hERG current change (%, negative = inhibition) at 10uM” value was 17.8%. The figure for `CCCN1C(=O)c2cc(C(=O)NCc3ccc(OC)cc3)ccc2C1O` (stereo not drawn) is -4.45%; for `CCC(C)(C)NC(=O)CCn1c(-c2ccccc2)cc(C(C)=O)c1C` it is -5.33%. The figure for `Cc1ccc(S(=O)(=O)N2CCC(C(=O)OCC(=O)N(C)Cc3ccccc3)CC2)cc1C` is -12%; for `Fc1ccc(/C=N/c2c(-c3ccc(F)cc3)nc3n2CCS3)cc1` it is -4.46%; for `CCc1nc(-c2ccc(OC)c(OC)c2)cc2cc(OC)c(OC)cc12` it is 20.7%.

As to `COc1ccc(C(=O)c2coc3ccc(OC(C)=O)cc23)cc1`, the “hERG current change (%, negative = inhibition) at 10uM” value is 24.9%.

In the case of `COc1ccc(Cl)cc1N=Cc1c(O)cc(C)oc1=O`, the “hERG current change (%, negative = inhibition) at 10uM” value is on record as 2.51%.

As to `COc1cccc(C(=O)Nc2cccc(-c3ccc(N4CCOCC4)nn3)c2)c1OC`, the “hERG current change (%, negative = inhibition) at 10uM” value is -4.72%.

Regarding `O=C(O)CNC(=O)c1ccccc1Br`, the “hERG current change (%, negative = inhibition) at 10uM” value stood at 9.63%. In the case of `O=C(c1ccccc1)N(CCO)Cc1cc2cc3c(cc2[nH]c1=O)OCCO3`, the “hERG current change (%, negative = inhibition) at 10uM” value came out at 27.6%.

With `Cc1nn(-c2ccccc2)c(N2CCCC2)c1/C=N/NC(=O)c1cc2ccccc2cc1O`, the “hERG current change (%, negative = inhibition) at 10uM” value is listed as -55.5%.

With `CC(C)(C)n1nc2c(c1NC(=O)COc1ccc3ccccc3c1)CS(=O)(=O)C2`, the “hERG current change (%, negative = inhibition) at 10uM” value is given as -25%. Under `Cn1c(N)cc(-c2ccc(F)cc2)c(C#N)c1=O` stands 3.18%; under `Cc1ccc(Nc2nc(N)nc(COC(=O)C3=COCCO3)n2)cc1`, -6.76%; under `Cc1cc(C)n2nc(C(=O)N3CCN(c4ccc([N+](=O)[O-])cc4)CC3)nc2n1`, -71.4%. For `Cc1cc(NS(=O)(=O)c2ccc(NC(=O)CCSc3ccc(F)cc3)cc2)nc(C)n1`, the “hERG current change (%, negative = inhibition) at 10uM” value is listed as 4.71%. As for `O=c1oc2ccccc2c(O)c1C=Nc1cccnc1`, the “hERG current change (%, negative = inhibition) at 10uM” value was 12.2%. Consider `COc1cccc(-c2ccc(NC(=O)C3CCCN(Cc4cnn(C)c4C)C3)cc2)c1` (stereo not drawn), for which the “hERG current change (%, negative = inhibition) at 10uM” value is recorded as 0.939%. The figure for `CCOc1cc2[nH]c(=O)n(CCC(=O)NCCc3ccc(OC)c(OC)c3)c(=O)c2cc1OCC` is 7.04%; for `Cc1ccc(C(=O)Nc2ccccc2-c2ccccc2)o1` it is -12.3%. The figure for `CCOc1ccc(Oc2c(/C=N/NC(C)=O)c(C)nn2-c2ccccc2)cc1` is -0.74%; for `CC(=O)NC1C(OCCOc2ccc(Cl)cc2Cl)OC(COC(C)=O)C(OC(C)=O)C1OC(C)=O` (stereo not drawn) it is -43.6%; for `O=C(NC1CC2CCCC(C1)N2C(=O)Nc1ccc(F)cc1)c1ccccc1` (stereo not drawn) it is -3.42%.

As for `CC1(C(=O)NCCN2CCOCC2)C=CC2(CCCCC2)N1C(=O)c1ccccc1` (stereo not drawn), the “hERG current change (%, negative = inhibition) at 10uM” value is 12%. Under `CN(c1cccc(NS(=O)(=O)c2cccs2)c1)S(C)(=O)=O` stands 9.88%. Under `CCOC(=O)c1cc(S(=O)(=O)N(C)Cc2ccccc2)cn1C` stands -11.7%; under `O=c1cc(-c2ccccc2)[nH]n2cnnc12`, 12.6%; under `CCOC(=O)CC(=O)Nc1ccn[nH]1`, 23.5%. Under `N#Cc1nc(-c2ccco2)oc1NCCN1CCOCC1` stands 7.46%; under `COc1cccc(C(=O)CSc2nc3ccccc3n2CC(=O)N(C(C)C)C(C)C)c1`, -5.36%.

Consider `CCS(=O)(=O)/N=C(\N)c1ccccc1`, for which the “hERG current change (%, negative = inhibition) at 10uM” value is listed as -2.86%.

Take `COc1ccc(CCNC(=O)CSc2nc(O)c(CC(C)C)c(=O)[nH]2)cc1OC`: the “hERG current change (%, negative = inhibition) at 10uM” value is recorded as -0.127%. Under `CC1CCN(Cc2c(C(=O)N/N=C/c3ccc(C(C)(C)C)cc3)nnn2-c2nonc2N)CC1` stands 17.7%. `O=c1cc(CN2CCN(c3ccccc3F)CC2)c2cc3c(cc2o1)CCCC3`: the “hERG current change (%, negative = inhibition) at 10uM” value was 5.86%. The figure for `CCCCn1c(N)c(N(CCOC)C(=O)CN(C)S(=O)(=O)c2ccc(C)cc2)c(=O)[nH]c1=O` is 7.22%; for `COc1cccc(C(=O)Nn2c(-c3cccs3)nc3ccccc3c2=O)c1OC` it is -4.95%; for `c1ccc2c(c1)c1ccccc1n1c(-c3ccc4c(c3)OCO4)nnc21` it is 3.9%. The figure for `Brc1ccc(OCCCCN2CCCCC2)cc1` is -53.6%. Under `O=C(CCC(=O)Nc1ccccc1)N/N=C/C=C/c1ccccc1` stands 32.1%; under `COC(=O)c1c(C)nc(C)c(C(=O)OC)c1-c1ccc(OC)cc1`, -7.69%; under `Cc1ccc(CN2CCN(CC(=O)N/N=C/c3ccc(C)o3)CC2)cc1`, -64.2%. For the compound `COC(=O)c1ccccc1NC(=O)COC(=O)CSc1nnc(N)s1`, the “hERG current change (%, negative = inhibition) at 10uM” value stood at 14.4%. Under `O=C(COC(=O)C1CC1)Nc1nc(-c2ccc(F)c(F)c2)cs1` stands 4.93%; under `CCOC(=O)CC(=O)CSc1ncnc2c1nnn2-c1ccc(OC)cc1`, 9.43%. The figure for `Cc1cc(OC(C)C(=O)N2CCN(c3ccccc3)CC2)c2c(C)c(C)c(=O)oc2c1` (stereo not drawn) is 10.3%. For the compound `Cc1cc(F)ccc1S(=O)(=O)Nc1c(C)n(C)n(-c2ccccc2)c1=O`, the “hERG current change (%, negative = inhibition) at 10uM” value is on record as 12.4%.

For `O=C1Nc2ccccc2OC1CC(=O)N1CCOCC1` (stereo not drawn), the “hERG current change (%, negative = inhibition) at 10uM” value was 0.751%. Turning to `CN(C)S(=O)(=O)N1CCN(CC(=O)Nc2ccc(Br)cc2)CC1`, the “hERG current change (%, negative = inhibition) at 10uM” value is listed as -49.4%. Consider `Cc1ccc(S(=O)(=O)N(C)/N=C/C=C/c2ccccc2)cc1`, for which the “hERG current change (%, negative = inhibition) at 10uM” value came to 0.391%.

In the case of `O=C(Nc1nnc(-c2ccccc2Cl)o1)c1cccnc1`, the “hERG current change (%, negative = inhibition) at 10uM” value is 9.03%.
